Sequences with one replicate were seen in a single cluster, so their values are uncertain.
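Note: ATP exposure 15 min at 22 °C before imaging.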

The subject of the series is ATP. Briefly: switch fluorescence ratio, 500 uM ATP over buffer (Cy3 cluster intensity, sum of 5 cycles each) (fold (ratio)); higher = stronger signal-on switching upon ATP binding; sequences stand for … in TCGTCGGCAGCGTCAGATGTGTATAAGAGACAGTTTTTTTTTTTTTTTTTTTTTTTTT…TC. The note with it: aptamer strand: ATP DNA aptamer (quencher-CACCTGGGGGAGTATTGCGGAGGAAGG + anchor), 100 nM annealed; ATP concentration: 500 uM; one replicate. A digest of the protocol:
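Cy3-labelled switching-strand clusters on a modified Illumina MiSeq flow-cell were annealed to 100 nM quencher-labelled ATP aptamer, imaged in selection buffer, then imaged after 15 min with 500 uM ATP at 22 °C. Five buffer/ATP cycles ran, with NaOH stripping and re-annealing between them. The fluorescence ratio is summed target-cycle over summed buffer-cycle Cy3 intensity per cluster, averaged per switch-domain sequence. Clusters outside 100-1000 RFU were excluded.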
Consider TTTGTGACGG, for which the switch fluorescence ratio came out at 1.03.
The same measure for GTGGTTACAT: 0.999; for CTAGAAGATA: 1.03; for TCCTATGAGT: 1.03.
As to TTGCTTGGT, the switch fluorescence ratio is 1.03.
On to CATGCCTGGG, for which the switch fluorescence ratio was 0.973.
As for CATCTTGTCT, the figure is 0.999; as for GCAGACACCA, 1.05; as for CGGACACGCG, 1.03.
As for TGAGCTGGT, the figure is 0.99; as for TTAGTAGG, 1.02.
As for TTAGGCGGAT, the figure is 0.98; as for AGTGCGAGGG, 0.996; as for TCAGAAAATA, 0.993.
With ACGGAAATCT, the switch fluorescence ratio was determined as 1.13.
Turning to CGTTAGACCG, the switch fluorescence ratio was 0.999.
As for AATGGTCCGC, the figure is 1.17; as for CTTAAAGCAG, 1.03.
As for TAGTTCGGGA, the figure is 0.977; as for GACGGGAGAA, 1.05.
For the sequence AGTAGGTCGT, the switch fluorescence ratio was found to be 0.995.
On to TTCTAAAACT, for which the switch fluorescence ratio stood at 1.01.
For the sequence TATTGTTTGT, the switch fluorescence ratio turned out to be 0.994.
As to TTTTCCATTC, the switch fluorescence ratio was 0.989.
In the case of TGGTTGTCAT, the switch fluorescence ratio was found to be 1.01.
As for GCTTAAAATC, the figure is 1.03; as for GGGAGCGTCA, 1.02.
Regarding ATGGGTAAGA, the switch fluorescence ratio amounted to 0.985.
On to CACCGGTTGC, for which the switch fluorescence ratio stood at 1.32.
For the sequence GGATCACCTA, the switch fluorescence ratio was 1.
The same measure for TAGTGTGTTA: 1.03.
The same measure for AACTAGGCAG: 0.993; for AAAAGATGGT: 1.01; for AGGCCGTGTA: 0.977.
The same measure for GTTGACCGGA: 1.08.
On to TTTGTAGCGT, for which the switch fluorescence ratio was found to be 1.07.
As for TTGCCCTCTT, the figure is 0.963; as for GGTAGTTTGG, 1.04; as for ACTACGTACT, 1.78.
As for GGCTTTACTT, the figure is 0.988; as for ATATTTTTGC, 0.989.
As for ACGCCTCGTT, the figure is 1.05; as for TTAAGATTAA, 1.01.
Consider TAAAATCTAC, for which the switch fluorescence ratio amounted to 1.1.
The same measure for AGCAATTG: 1.39; for AAGGCTCGGG: 0.997; for AGCAGTATTA: 0.939.
Regarding TTAAGAAGCA, the switch fluorescence ratio was 1.02.
The same measure for GGGGGTTTTA: 0.962; for TAAAGGTGAT: 1.11.
The same measure for TGATGTCGTT: 1.14.
The same measure for CAAGGCGCGC: 0.979; for CCATGTTTGA: 0.991; for AGTTAGGAC: 0.989.
As to AAGCTCGGTC, the switch fluorescence ratio amounted to 0.976.
CTTACCGGCT: the switch fluorescence ratio stood at 1.12.
On to GTAAAACTCT, for which the switch fluorescence ratio stood at 1.03.
In the case of TGATTAG, the switch fluorescence ratio is 0.984.
As for GGGCCGGTCA, the figure is 0.971; as for TTCGGATCTC, 0.962.
On to CACGCGCTCG, for which the switch fluorescence ratio was found to be 1.07.
On to GCTATATTCG, for which the switch fluorescence ratio stood at 1.01.
The same measure for TTTTTCTTCC: 1.58; for TTATCGCGAT: 1.
The same measure for GGAGAAAACT: 0.994.
With GGATATTTGT, the switch fluorescence ratio is 1.03.
With GAGGGTTGTC, the switch fluorescence ratio was determined as 0.967.
Consider TTACTTACCA, for which the switch fluorescence ratio was found to be 1.19.
As for ACGGGTTCAG, the figure is 1.03; as for AGCATCTACC, 1.22; as for CGATTCCTCC, 2.38.
As for CCCTCTCATG, the figure is 0.982.
Regarding TGACAGGGAT, the switch fluorescence ratio amounted to 0.986.
Take AATTTGGTGT: the switch fluorescence ratio came to 0.996.
With GTTTGGACGC, the switch fluorescence ratio is 1.01.
As for GCCCCCCGTT, the figure is 1.06; as for ATGTCTATTC, 1.05; as for AATCATTCGG, 0.998.
Consider CCAGCCGCCT, for which the switch fluorescence ratio is 1.07.

Source of the values: the supplement of paper PMC10126150.
